Consider 50 compounds from publication PMC6919601, “Identification of Plasmodium dipeptidyl aminopeptidase allosteric inhibitors by high throughput screening” (PLoS ONE, 2019).

Screen size: about 110,000 compounds; about 230 (0.21%) showed an effect of 50% or more. The list shows a part of the results.
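Also: 30 min substrate incubation versus DMSO and 10 µM JCP410 controls.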

In the assay the target is DPAP1 (Plasmodium falciparum, UniProt Q8IIJ9). Nature of the assay: primary screen, percent inhibition; read by cleavage of a fluorogenic dipeptide substrate; higher = more effect of the substance. On the set-up: species or system P. falciparum D10 trophozoite lysates; single well.
DPAP1, sequence (Q8IIJ9 whole entry, looked up): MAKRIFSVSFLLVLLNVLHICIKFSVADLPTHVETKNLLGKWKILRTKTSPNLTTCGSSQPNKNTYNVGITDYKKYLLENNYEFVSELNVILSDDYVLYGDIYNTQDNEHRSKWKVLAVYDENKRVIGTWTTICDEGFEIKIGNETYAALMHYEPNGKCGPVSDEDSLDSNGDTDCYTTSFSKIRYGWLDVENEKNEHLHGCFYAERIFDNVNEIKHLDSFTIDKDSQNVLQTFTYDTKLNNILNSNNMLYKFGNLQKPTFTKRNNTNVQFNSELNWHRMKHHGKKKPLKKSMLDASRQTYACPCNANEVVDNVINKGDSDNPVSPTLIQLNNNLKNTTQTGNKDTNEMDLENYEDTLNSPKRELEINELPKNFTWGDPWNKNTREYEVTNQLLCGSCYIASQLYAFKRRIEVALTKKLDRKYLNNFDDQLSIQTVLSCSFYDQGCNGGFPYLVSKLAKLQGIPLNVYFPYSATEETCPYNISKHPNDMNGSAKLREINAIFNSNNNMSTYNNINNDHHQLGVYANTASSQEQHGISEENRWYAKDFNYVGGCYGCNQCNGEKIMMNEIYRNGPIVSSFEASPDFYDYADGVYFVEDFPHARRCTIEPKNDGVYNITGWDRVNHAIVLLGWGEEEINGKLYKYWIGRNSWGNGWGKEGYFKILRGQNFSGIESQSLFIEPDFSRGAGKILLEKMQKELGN
Consider `COc1ccc(C)cc1NC(=O)c1ccc(Br)o1`, for which the “% Inhibition @ 10 uM” value is listed as -1.44%.
Take `Cc1cc(Cl)ccc1OCC(=O)NCCOc1nc(N2CCOCC2)nc(N2CCOCC2)n1`: the “% Inhibition @ 10 uM” value is 2.05%.
Turning to `CC1CCCN(C2=NC(=O)/C(=C\c3cccc(O)c3)S2)C1` (centres unmarked), the “% Inhibition @ 10 uM” value is on record as 2.09%.
Next, `Cc1ccc(S(=O)(=O)N(CC(=O)NCc2ccccn2)c2ccc(Cl)cc2)cc1`: -3.19%.
On to `CC(C)Cn1c(CN(C)Cc2ccccc2)nc2c1c(=O)n(C)c(=O)n2C`, for which the “% Inhibition @ 10 uM” value is reported as 0.317%.
Next, `O=C(O)c1ccccc1/C=C\c1ccc(Cl)s1`: 3.05%.
Next, `CCC(C)NC(=O)c1ccccc1NS(=O)(=O)c1ccc2c(c1)OCCO2` (centres unmarked): -4.7%; `O=C1CCCC/C1=C/Nc1cccc(F)c1`: -4.61%; `COc1ccc(C(=O)Nc2c(C(=O)NC(C)(C)C)oc3ccccc23)cc1`: -0.528%.
For the compound `CCCCCn1cc(C(=O)NCc2ccccc2)c2ccccc21`, the “% Inhibition @ 10 uM” value was -0.834%.
Consider `O=C(NCC1CCCO1)c1ccc(Cn2c(SCc3ccccc3F)nc3ccncc32)cc1` (centres unmarked), for which the “% Inhibition @ 10 uM” value was 6.02%.
On to `CCOC(=O)c1snc2c(O)ncnc12`, for which the “% Inhibition @ 10 uM” value was -3.64%.
Next, `O=C1NC2(CCN(C(=O)c3ccccc3Cl)CC2)N=C1c1ccccc1`: 6.99%.
Turning to `CC1CCCCN1c1ncnc2sc3c(c12)CCC3` (centres unmarked), the “% Inhibition @ 10 uM” value is -1.65%.
Next, `COc1ccc(C(=O)NC(C(C(C)=O)C(C)=O)(C(F)(F)F)C(F)(F)F)cc1`: -1.47%; `CCOc1ccc(Nc2ncnc3sc(CC)cc23)cc1`: -0.711%.
Next, `Cc1ccccc1CN1CCNC(=O)C1CC(=O)O` (centres unmarked): -1.11%.
Next, `O=C(NCc1ccccn1)c1ccc(Cl)c(Cl)c1`: -2.42%; `Nc1c(Cl)cc(N2C(=O)c3ccc(C(=O)O)cc3C2=O)cc1Br`: 1.34%; `Cc1cc(C)c(NC(=O)Cn2cnc3c2c(=O)n(C)c(=O)n3C)c(C)c1`: -5.71%.
On to `Clc1nc(N2CCOCC2)nc(N(c2ccccc2)c2ccccc2)n1`, for which the “% Inhibition @ 10 uM” value is 2.62%.
Next, `O=C(COc1ccccc1)Nc1ccc(S(=O)(=O)Nc2nccs2)cc1`: 0.658%; `CC(=O)c1ccc(N2CCN(Cc3ccc4c(c3)OCO4)CC2)cc1`: 3.95%.
Next, `COc1cc(/C=C2\Sc3ccccc3C2=O)cc(OC)c1O`: 0.385%; `O=C1NC(c2ccc(Cl)cc2)c2c(-c3ccco3)n[nH]c21` (centres unmarked): -3.35%; `O=C(Nc1ccc(Br)cc1)C1CC1(c1ccccc1)c1ccccc1` (centres unmarked): -2.72%.
Next, `O=C(c1ccc2c(c1)sc1nc(-c3ccc(F)cc3)cn12)N1CCC2(CC1)OCCO2`: 38.1%; `COc1ccc(S(=O)(=O)N(CC(=O)NC2CCCC2)c2cccc(Cl)c2)cc1`: -0.512%.
Consider `Cn1ncc(C(=O)N2CCCCCC2)c1C1CCN(C(=O)OC(C)(C)C)CC1`, for which the “% Inhibition @ 10 uM” value was found to be 3.61%.
Next, `CCCN(Cc1ccccc1[N+](=O)[O-])CC1CC1`: 2.1%; `COc1ccc(-c2nc(-c3ccccn3)no2)cc1OC`: -5.07%.
Next, `Cc1cc(OCC(=O)Nc2ccc(S(=O)(=O)Nc3nccs3)cc2)ccc1Br`: 6.65%; `Cc1ccc2oc(=O)c3cc(C(=O)N(CCN(C)C)Cc4ccco4)sc3c2c1`: 3.6%.
Next, `CCC(CC)C(=O)Nc1cccc(NC(=O)c2cccs2)c1`: 3.29%; `Cc1ccc2occ(C3Nc4ccccc4N=C4CC(C)(C)CC(O)=C43)c(=O)c2c1` (centres unmarked): -1.08%; `CC(=O)Nc1ccc(C2C(C#N)=C(N)Oc3cc(N)ccc32)cc1` (centres unmarked): 0.317%.
`COc1ccccc1N1C(=O)C2C(C1=O)C1CC2[C@H](S)[C@H]1S` (some centres unmarked): the “% Inhibition @ 10 uM” value is listed as -0.48%.
In the case of `CCOC(=O)c1c(C)c(C(=O)NC(C)c2ccccc2)c(C)n1C` (centres unmarked), the “% Inhibition @ 10 uM” value is listed as -1.66%.
Next, `COc1cc2ccccc2cc1C(=O)NCCc1ccccc1`: -9.2%; `O=C(O)CCC(=O)Nc1ccc(-c2cn3ccsc3n2)cc1`: -4.12%; `CC(C)(C)NS(=O)(=O)c1ccc2[nH]c3c(c2c1)CCCCC3`: 0.098%.
Take `CC(C)c1ccc(C2C(C#N)=C(N)OC3=C2C(=O)CCC3)cc1` (centres unmarked): the “% Inhibition @ 10 uM” value was -4.12%.
Next, `CNC(=O)OCc1nc(COC(=O)NC)nc(COC(=O)NC)n1`: -1.18%; `CCN(CC)C(=O)c1cc([N+](=O)[O-])cc([N+](=O)[O-])c1N`: 1.7%; `CCOC(=O)c1nc(-c2ccc(C(F)(F)F)cc2)no1`: -0.92%.
Next, `Cc1cc(C)c(C)c(/C=C(/C#N)C(N)=O)c1C`: -3.38%; `Cn1c(C(=O)N2CCCC(C(=O)NCc3ccc(F)cc3)C2)cc2sccc21` (centres unmarked): -11.6%.
Next, `O=C(Nc1cc(-c2ccccc2)sc1C(=O)O)c1cccnc1`: -2.17%; `CN(C)c1ncc(C(=O)O)cn1`: 3.88%; `CCn1cc(C(=O)OCc2ccc(F)cc2Cl)c(=O)c2ccc(C)nc21`: 1.09%.
